Values joined by “and” are separate entries in the source; they are usually repeats but may differ in a detail not shown here. Identical values can stand only once. Inconclusive results, whose numbers are uncertain, are shown with a selection of clear calls. Potencies beside an inconclusive call are fits to weak or partial responses and may not hold up. Active and inactive are the calls of the source. Calls follow the shape of the dose curve; as a rule, active = well fitted curve in the direction sought with a large enough effect; inconclusive = small, poorly fitted or top-dose-only effect, or another doubt; inactive = no such curve, though single readings can be large; an effect the other way counts as inactive or inconclusive.
Key:
[1] = qHTS for Inhibitors of Plasmodium falciparum (DD2) proliferation (AID 504314); details: P. falciparum Dd2 in erythrocytes, SYBR Green growth, 72 h; series mostly up to 6.11 µM
How it was run: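 Parasite proliferation measured as SYBR Green signal from Plasmodium DNA, mature erythrocytes lacking DNA. 72 h incubation, 37C; activity scaled between vehicle and 0.29 uM artemisinin, with correction from vehicle-only plates.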

[2] = qHTS for Inhibitors of Plasmodium falciparum (GB4) proliferation (AID 504315); also: nearly all actives have a fitted effect of over 50% in size; details: P. falciparum GB4 in erythrocytes, SYBR Green DNA, 72 h; activity change, negative = inhibition: at 6.7 µM (top of the series)
How it was run: (§1)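 Parasite growth measured as SYBR Green DNA fluorescence (ex 485, em 535 nm) after overnight lysis following 72 h culture at 37 °C, 0.3% parasitemia, 2.5% hematocrit. Values normalized against DMSO and 0.29 uM artemisinin controls, with plate-stack correction.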

[3] = qHTS for Inhibitors of Plasmodium falciparum (7G8) proliferation (AID 504316); also: nearly all actives have a fitted effect of over 65% in size; details: P. falciparum 7G8 in erythrocytes, SYBR Green DNA, 72 h; activity change, negative = inhibition: at 6.7 µM (top of the series)
How it was run: as §1

[4] = qHTS for Inhibitors of Plasmodium falciparum (HB3) proliferation (AID 504318); also: nearly all actives have a fitted effect of over 60% in size; details: P. falciparum HB3 in erythrocytes, SYBR Green DNA, 72 h; activity change, negative = inhibition: at 7.21 µM (top of the series)
How it was run: as §1
Potency is read from the fitted curve at half-maximal effect; tags tell the direction and shape of the fitted curve.

Question: With `COC(=O)C(C(C)=O)C1c2ccccc2C=C(C)N1C(=O)OC` (centres undefined) as the compound, how does the Potency [1] read?
Answer: Its Potency is inconclusive: 4.24 µM [inhibitor, single point].

Question: And the Potency [2]?
Answer: The Potency was inconclusive: 4.26 µM [inhibitor, single point].

Question: And the Potency [3]?
Answer: The Potency was inconclusive: 4.26 µM [inhibitor, single point].

Question: What about the Potency [4] of the same compound?
Answer: The Potency was “inactive and inconclusive: 60.1 nM [inhibitor, partial curve, poor fit]”.

Question: Which Potency [1] does the source give for `C=C[C@@H](C)[C@](C)(O)c1ccccc1` here?
Answer: Its Potency is inconclusive: 2.12 µM [inhibitor, partial curve, poor fit].

Question: What about the Potency [2] of the same compound?
Answer: The Potency was inconclusive: 1.51 µM [inhibitor, single point].

Question: And the Potency [3]?
Answer: Its Potency is active: 1.51 µM.

Question: And the Potency [4]?
Answer: The Potency was inconclusive: 2.69 µM [inhibitor, single point].

Question: With `COc1ccc2c3c(c(=O)oc2c1)[C@H]1O[C@](c2ccsc2)(Cc2cc(C#N)ccc21)O3` as the compound, how does the Potency [1] read?
Answer: Its Potency is inconclusive: 2.12 µM [inhibitor, single point].

Question: And the Potency [2]?
Answer: The Potency was “inactive”.

Question: What about the Potency [3] of the same compound?
Answer: The Potency was inconclusive: 1.9 µM [inhibitor, single point].

Question: And the Potency [4]?
Answer: The Potency was inconclusive: 2.13 µM [inhibitor, single point].

Question: For `CCCC[C@]12Cc3cc(C#N)ccc3[C@H](O1)c1c(cc(C)n(Cc3ccccc3)c1=O)O2`, which Potency [1] is on record?
Answer: Its Potency is inconclusive: 1.5 µM [inhibitor, single point].

Question: What about the Potency [2] of the same compound?
Answer: The Potency was inconclusive: 1.9 µM [inhibitor, single point].

Question: What about the Potency [3] of the same compound?
Answer: Its Potency is active: 1.69 µM.

Question: What about the Potency [4] of the same compound?
Answer: The Potency was inconclusive: 1.69 µM [inhibitor, single point].

Question: Which Potency [1] does the source give for `C#CCN1C(=O)[C@]2(OC[C@@H]3Cc4ccccc4[C@@H]3C=C2C)c2ccccc21` here?
Answer: Its Potency is inconclusive: 1.5 µM [inhibitor, partial curve, poor fit].

Question: And the Potency [2]?
Answer: The Potency was inconclusive: 0.379 µM [inhibitor, partial curve, poor fit].

Question: And the Potency [3]?
Answer: The Potency was inconclusive: 0.169 µM [inhibitor, partial curve].

Question: What about the Potency [4] of the same compound?
Answer: Its Potency is inconclusive: 1.69 µM [inhibitor, single point].

Question: With `COCCN1C(=O)CC[C@@]23C1=NC(C(=O)OC)=C(C(=O)OC)[C@@H]2N(CC=C(C)C)c1ccccc13` as the compound, how does the Potency [1] read?
Answer: The Potency was “inactive”.

Question: And the Potency [2]?
Answer: Its Potency is “inactive”.

Question: And the Potency [3]?
Answer: Its Potency is inconclusive: 4.26 µM [inhibitor, partial curve, poor fit].

Question: And the Potency [4]?
Answer: The Potency was “inactive”.

Question: With `CCOC(=O)C(c1ccc(OC)c(OC)c1)C1c2ccccc2C=C(C)N1C(=O)OC` (centres undefined) as the compound, how does the Potency [1] read?
Answer: The Potency was inconclusive: 4.24 µM [inhibitor, partial curve, poor fit].

Question: What about the Potency [2] of the same compound?
Answer: Its Potency is “inactive”.

Question: What about the Potency [3] of the same compound?
Answer: Its Potency is “inactive and inconclusive: 1.69 µM [inhibitor, partial curve, poor fit]”.

Question: What about the Potency [4] of the same compound?
Answer: Its Potency is inconclusive: 2.13 µM [inhibitor, single point] and inactive.

Question: With `COc1cc(OC)c2c(c1)OC1Cc3cc(OC)c(OC)cc3C2O1` (centres undefined) as the compound, how does the Potency [1] read?
Answer: The Potency was inconclusive: 1.69 µM [inhibitor, single point].

Question: What about the Potency [2] of the same compound?
Answer: The Potency was inconclusive: 1.9 µM [inhibitor, single point].

Question: And the Potency [3]?
Answer: The Potency was inconclusive: 2.13 µM [inhibitor, single point].

Question: What about the Potency [4] of the same compound?
Answer: Its Potency is inconclusive: 1.69 µM [inhibitor, single point].

Question: Which results are given for `CC(Nc1oc(-c2ccccc2)nc1-c1cccc2ccccc12)c1ccccc1` (centres undefined)?
Answer: Potency [1]: inconclusive: 4.24 µM [inhibitor, partial curve, poor fit] and inconclusive: 1.19 µM [inhibitor, partial curve, poor fit]; Potency [2]: inconclusive: 1.51 µM [inhibitor, single point] and inconclusive: 3.38 µM [inhibitor, partial curve, poor fit]; Potency [3]: inconclusive: 1.51 µM [inhibitor, single point] and inconclusive: 1.69 µM [inhibitor, single point]; Potency [4]: inconclusive: 1.51 µM [inhibitor, single point]

Question: Which results are given for `C[C@H]1Cc2c(COc3ccccc3)nc3c(c2CO1)CN(S(=O)(=O)c1ccc(Cl)c2nonc12)CC3`?
Answer: Potency [1]: inconclusive: 0.927 µM [inhibitor, partial curve, poor fit]; Potency [2]: inactive; Potency [3]: inconclusive: 1.69 µM [inhibitor, partial curve, poor fit]; Potency [4]: inactive

Question: Which Potency [1] does the source give for `COC1=CC2C(=O)C([C@@H]3c4ccccc4C[C@]23C)C1(O)c1cccc(OC)c1` (some centres undefined) here?
Answer: The Potency was inconclusive: 1.5 µM [inhibitor, partial curve].

Question: What about the Potency [2] of the same compound?
Answer: Its Potency is inconclusive: 1.9 µM [inhibitor, partial curve].

Question: What about the Potency [3] of the same compound?
Answer: The Potency was inconclusive: 1.9 µM [inhibitor, single point].

Question: And the Potency [4]?
Answer: The Potency was inconclusive: 1.35 µM [inhibitor, partial curve].
